ChEMBL document CHEMBL4706658, “Discovery and Biological Evaluation of N-Methyl-pyrrolo[2,3-b]pyridine-5-carboxamide Derivatives as JAK1-Selective Inhibitors” (J Med Chem, 2021)
pIC50: −log10 of the molar value.

Target: T1, Tyrosine-protein kinase JAK3 (Homo sapiens, UniProt P52333)
T1 sequence (P52333 whole entry): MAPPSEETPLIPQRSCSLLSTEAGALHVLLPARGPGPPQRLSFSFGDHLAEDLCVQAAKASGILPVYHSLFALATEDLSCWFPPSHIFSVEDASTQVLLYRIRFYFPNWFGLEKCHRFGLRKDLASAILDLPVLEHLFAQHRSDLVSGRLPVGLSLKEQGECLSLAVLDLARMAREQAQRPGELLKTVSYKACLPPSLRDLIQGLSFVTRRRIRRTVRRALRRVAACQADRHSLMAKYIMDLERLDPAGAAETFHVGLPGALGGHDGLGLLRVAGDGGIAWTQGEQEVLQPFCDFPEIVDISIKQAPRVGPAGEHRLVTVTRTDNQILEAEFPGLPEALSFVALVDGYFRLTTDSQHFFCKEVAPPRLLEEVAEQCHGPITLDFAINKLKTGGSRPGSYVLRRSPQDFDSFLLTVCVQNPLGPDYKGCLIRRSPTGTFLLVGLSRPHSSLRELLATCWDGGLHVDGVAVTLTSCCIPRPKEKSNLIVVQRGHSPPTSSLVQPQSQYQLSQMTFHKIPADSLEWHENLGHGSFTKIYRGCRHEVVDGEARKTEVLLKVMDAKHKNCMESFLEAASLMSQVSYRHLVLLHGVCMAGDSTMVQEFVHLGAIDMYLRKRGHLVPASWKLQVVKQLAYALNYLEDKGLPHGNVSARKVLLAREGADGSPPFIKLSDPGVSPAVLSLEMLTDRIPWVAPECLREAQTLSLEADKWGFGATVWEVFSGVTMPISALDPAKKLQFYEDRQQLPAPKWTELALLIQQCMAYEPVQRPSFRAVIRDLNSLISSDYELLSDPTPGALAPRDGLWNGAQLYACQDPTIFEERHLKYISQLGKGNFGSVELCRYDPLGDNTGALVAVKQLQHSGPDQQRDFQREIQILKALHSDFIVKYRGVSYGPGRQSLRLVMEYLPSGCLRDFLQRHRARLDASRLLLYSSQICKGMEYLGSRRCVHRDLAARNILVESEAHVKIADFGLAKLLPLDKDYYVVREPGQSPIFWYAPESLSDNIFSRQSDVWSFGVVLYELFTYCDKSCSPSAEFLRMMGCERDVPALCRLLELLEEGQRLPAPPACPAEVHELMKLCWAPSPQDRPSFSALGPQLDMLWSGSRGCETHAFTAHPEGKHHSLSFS

| SMILES | pIC50 |
| --- | --- |
| CNC(=O)c1cnc2[nH]ccc2c1NC1CCN(Cc2ccc(OC)cc2)CC1 | 6.38 |
| CNC(=O)c1cnc2[nH]ccc2c1N[C@@H]1CCN(Cc2ccc(C#N)cc2)[C@H](C)C1 (relative stereo) | 8.62 |
| C[C@@H]1C[C@H](Nc2c(C(N)=O)cnc3[nH]ccc23)CCN1Cc1cccc(Cl)c1 (relative stereo) | 8.00 |
| COc1cccc(CN2CCC(Nc3c(C(=O)NC4CC4)cnc4[nH]ccc34)CC2)c1 | 5.07 |
| CNC(=O)c1cnc2[nH]ccc2c1NC1CCN(Cc2ccc(OC)c(OC)c2)CC1 | 5.59 |
| CNC(=O)c1cnc2[nH]ccc2c1NC1CCN(Cc2cccc(OC)c2)CC1 | 6.06 |
| COc1cccc(CN2CCC(Nc3c(C(=O)NC4CCCC4)cnc4[nH]ccc34)CC2)c1 | < 5.00 |
| CNC(=O)c1cnc2[nH]ccc2c1NC1CCCN(Cc2ccccc2)CC1 (centres undefined) | 6.47 |
| CNC(=O)c1cnc2[nH]ccc2c1NC1CCN(Cc2cccc(C#N)c2)CC1 | 6.61 |
| O=C(NC1CC1)c1cnc2[nH]ccc2c1NC1CCN(Cc2ccccc2)CC1 | 6.29 |
| CNC(=O)c1cnc2[nH]ccc2c1NC1CCN(Cc2ccccc2)CC1 | 6.16 |
| COc1cccc(CN2CC[C@@H](Nc3c(C(N)=O)cnc4[nH]ccc34)C[C@H]2C)c1 (relative stereo) | 8.05 |
| CNC(=O)c1cnc2[nH]ccc2c1NC1CCCN(Cc2cccc(OC)c2)CC1 (centres undefined) | 7.14 |
| CNC(=O)c1cnc2[nH]ccc2c1NC1CCN(Cc2ccccc2OC)CC1 | 6.52 |
